The target of the experiment is Genome polyprotein (dengue virus type 2) (UniProt P29990).
[1] abbreviates: Thailand/16681/1984, Concentration 25.0 uM, Number of replicates 1.0.

Screen size: about 2,000 compounds; about 110 (5.5%) showed an effect of 50% or more. The list shows a part of the results.

Take `c1ccc2c(CN3CC[C@H](c4c[nH]c5ccccc45)C3)c[nH]c2c1`: the inhibition (usually the change of the read-out against control, counted positive when it falls) by setting is: (Thailand/16681/1984, Concentration 50.0 uM, Number of replicates 2.0, Standard deviation 0.10838753302891979 %) 1.47%; (Thailand/16681/1984, Concentration 100.0 uM, Number of replicates 2.0, Standard deviation 0.23086560045200166 %) 6.12%; (Thailand/16681/1984, Concentration 200.0 uM, Number of replicates 2.0, Standard deviation 0.3197428515430465 %) 11.5%.

Take `Cc1cc(NS(=O)(=O)c2ccc(Oc3ccccc3Cl)cc2)c(C(=O)NCC(F)(F)F)cc1F`: the inhibition came to 80.7% (Thailand/16681/1984, Concentration 49.5 uM, Number of replicates 2.0, Standard deviation 0.004288863304468577 %); 85% (Thailand/16681/1984, Concentration 99.01 uM, Number of replicates 2.0, Standard deviation 0.05387243894141284 %); 82.2% (Thailand/16681/1984, Concentration 198.0 uM, Number of replicates 2.0, Standard deviation 0.06674981844803736 %).

Take `CC(C)(C)OC(=O)NC1CN(C(=O)C2CCN(c3ccc(C=O)cc3)CC2)C1`: the inhibition under setting [1] was 12.6%.

`Fc1ncccc1OCc1cc(Cl)nc(N2CCNCC2)n1`: the inhibition is -5.68% (Thailand/16681/1984, Concentration 49.5 uM, Number of replicates 2.0, Standard deviation 1.2407104970939964 %); -7.07% (Thailand/16681/1984, Concentration 99.01 uM, Number of replicates 2.0, Standard deviation 1.7156619842641088 %); -4.9% (Thailand/16681/1984, Concentration 198.0 uM, Number of replicates 2.0, Standard deviation 0.643791762304754 %).

Regarding `O=C1C[C@@H](CNC(=O)c2cc(Cl)ccc2NS(=O)(=O)c2ccc(Oc3ccccc3Cl)cc2)CN1`, the inhibition runs as follows: (Thailand/16681/1984, Concentration 49.5 uM, Number of replicates 2.0, Standard deviation 1.683767946709369 %) 12.4%; (Thailand/16681/1984, Concentration 99.01 uM, Number of replicates 2.0, Standard deviation 0.12281254481286434 %) 57.2%; (Thailand/16681/1984, Concentration 198.0 uM, Number of replicates 2.0, Standard deviation 0.21046989752060982 %) 53.6%.

On to `CNC(=O)CCNS(=O)(=O)c1ccc(Oc2ccccc2Cl)cc1`, for which the inhibition reads like this: (Thailand/16681/1984, Concentration 49.5 uM, Number of replicates 2.0, Standard deviation 0.34853494426765735 %) -0.591%; (Thailand/16681/1984, Concentration 99.01 uM, Number of replicates 2.0, Standard deviation 0.38589422688907765 %) 0.431%; (Thailand/16681/1984, Concentration 198.0 uM, Number of replicates 2.0, Standard deviation 0.13531355296228656 %) 1.94%.

Regarding `O=Cc1ccc(N2CCC(C(=O)N3CCN(CCOc4ccccc4)CC3)CC2)cc1`, the inhibition under setting [1] stood at 11.7%.

On to `Cc1cc(Cl)c2cccc(N)c2n1`, for which the inhibition by setting is: (Thailand/16681/1984, Concentration 49.95 uM, Number of replicates 2.0, Standard deviation 0.6589137143756747 %) 13.5%; (Thailand/16681/1984, Concentration 99.9 uM, Number of replicates 2.0, Standard deviation 0.20071745394997703 %) 27.6%.

Consider `Cc1c(C(=O)N[C@@H](CO)CS(C)(=O)=O)ccc(O)c1NC(=O)c1ccncc1F`, for which the inhibition was -1.36% (Thailand/16681/1984, Concentration 49.5 uM, Number of replicates 2.0, Standard deviation 0.32546689933300804 %); -0.135% (Thailand/16681/1984, Concentration 99.01 uM, Number of replicates 2.0, Standard deviation 0.3717289134489451 %); 2.38% (Thailand/16681/1984, Concentration 198.0 uM, Number of replicates 2.0, Standard deviation 0.28301457046410705 %).

`NC(=O)[C@@H]1Cc2ccccc2CN1C(=O)C1CCN(c2ccc(C=O)cc2)CC1`: under setting [1], the inhibition turned out to be 12%.

Consider `Cc1cc(CO)c2cccc(NC(=O)C3CC(N)C3)c2n1` (configuration not stated), for which the inhibition is, setting by setting: (Thailand/16681/1984, Concentration 49.95 uM, Number of replicates 2.0, Standard deviation 0.3514210972334106 %) 31.4%; (Thailand/16681/1984, Concentration 99.9 uM, Number of replicates 2.0, Standard deviation 0.19619256829384746 %) 78.8%.

For the molecule `COc1cc(CCNC(=O)C2CCN(c3ccc(C=O)cc3)CC2)cc(OC)c1`, the inhibition under setting [1] stood at 12.9%.

In the case of `O=Cc1ccc(N2CCC(C(=O)N(Cc3cccc(F)c3)C3CCCC3)CC2)cc1`, the inhibition under setting [1] was 15%.

For `Nc1ccc(C(=O)Nc2nc3ccccc3s2)cn1`, the inhibition reads like this: (Thailand/16681/1984, Concentration 49.5 uM, Number of replicates 2.0, Standard deviation 0.2132030363528443 %) 4.25%; (Thailand/16681/1984, Concentration 99.01 uM, Number of replicates 2.0, Standard deviation 0.08901228959367372 %) 2.13%; (Thailand/16681/1984, Concentration 198.0 uM, Number of replicates 2.0, Standard deviation 0.004796985710115915 %) 5.49%.

As to `O=Cc1ccc(N2CCC(C(=O)NCc3cncc(Br)c3)CC2)cc1`, the inhibition under setting [1] amounted to 12.8%.

For the molecule `Cc1cc(CO)c2cccc(CC(=O)NC[C@H](C)O)c2n1`, under “Thailand/16681/1984, Concentration 99.9 uM, Number of replicates 2.0, Standard deviation 0.37872079112567497 %”, the inhibition was -9.3%.

`NCc1cccc(NC(=O)[C@@H](NC(=O)OCc2ccccc2)c2ccc(F)cc2)c1`: the inhibition was -4.62% (Thailand/16681/1984, Concentration 49.5 uM, Number of replicates 2.0, Standard deviation 2.4011437232418986 %); -3.96% (Thailand/16681/1984, Concentration 99.01 uM, Number of replicates 2.0, Standard deviation 1.9050608177527883 %); -3.52% (Thailand/16681/1984, Concentration 198.0 uM, Number of replicates 2.0, Standard deviation 2.2061626239616485 %).

Consider `COCCCN(Cc1ccccc1)C(=O)C1CCN(c2ccc(C=O)cc2)CC1`, for which, under setting [1], the inhibition was found to be 16.7%.

For the molecule `CCN(CC)C(=O)C1CCN(C(=O)C2CCN(c3ccc(C=O)cc3)CC2)CC1`, the inhibition under setting [1] was found to be 11.7%.

Turning to `Cc1nn(CCc2cc(F)cc(F)c2)cc1C1CCNCC1`, the inhibition was -1.21% (Thailand/16681/1984, Concentration 49.5 uM, Number of replicates 2.0, Standard deviation 1.1346393127123868 %); -1.9% (Thailand/16681/1984, Concentration 99.01 uM, Number of replicates 2.0, Standard deviation 1.9848261941502932 %); -1.09% (Thailand/16681/1984, Concentration 198.0 uM, Number of replicates 2.0, Standard deviation 2.5836257952746067 %).

Turning to `CCOc1ccc(CCNC(=O)C2CCN(c3ccc(C=O)cc3)CC2)cc1`, the inhibition under setting [1] came out at 12.1%.

Regarding `CNC(=O)c1ccc2n1CCN(S(=O)(=O)CCn1cnc3ccccc31)[C@@H]2C`, the inhibition was -2.4% (Thailand/16681/1984, Concentration 49.5 uM, Number of replicates 2.0, Standard deviation 0.8922565379957527 %); -2.77% (Thailand/16681/1984, Concentration 99.01 uM, Number of replicates 2.0, Standard deviation 0.9153368265898945 %); -3.58% (Thailand/16681/1984, Concentration 198.0 uM, Number of replicates 2.0, Standard deviation 0.6530625516906042 %).

`CNC(=O)c1cc(Cl)ccc1NC(=O)CNc1ccc(S(N)(=O)=O)cc1F`: the inhibition runs as follows: (Thailand/16681/1984, Concentration 49.5 uM, Number of replicates 2.0, Standard deviation 0.21195144353946477 %) -7.68%; (Thailand/16681/1984, Concentration 99.01 uM, Number of replicates 2.0, Standard deviation 1.473382848647963 %) -4.07%; (Thailand/16681/1984, Concentration 198.0 uM, Number of replicates 2.0, Standard deviation 1.1692781637763987 %) -4.73%.

These data come from ChEMBL document CHEMBL5606460, “ASAP - DENV-2 NS2B-NS3 protease fluorescence single point” (2024).
